In all, about 110,000 compounds were measured (“z-score”: median about -0.1, highest 2% from about 2 on). Some of the results follow. The source made the active and inactive calls.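 Rule for the calls: active = z-score in the third read window above 3 or below -3; inactive = the rest.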

The target of this test is Metabotropic glutamate receptor 8 (Rattus norvegicus) (UniProt P70579). The test can be described thus: rat mGluR8 modulators via GIRK flux, primary screen, cell-based, thallium flux, HTS (AID 488969). The following applies: HEK293 rat mGluR8, GIRK (G protein-gated inwardly rectifying potassium channel) thallium flux, FluoZin2; at 10 µM; stronger effect = higher value; submaximal glutamate (EC20) added with thallium.
UniProt P70579, sequence (P70579 whole entry, looked up): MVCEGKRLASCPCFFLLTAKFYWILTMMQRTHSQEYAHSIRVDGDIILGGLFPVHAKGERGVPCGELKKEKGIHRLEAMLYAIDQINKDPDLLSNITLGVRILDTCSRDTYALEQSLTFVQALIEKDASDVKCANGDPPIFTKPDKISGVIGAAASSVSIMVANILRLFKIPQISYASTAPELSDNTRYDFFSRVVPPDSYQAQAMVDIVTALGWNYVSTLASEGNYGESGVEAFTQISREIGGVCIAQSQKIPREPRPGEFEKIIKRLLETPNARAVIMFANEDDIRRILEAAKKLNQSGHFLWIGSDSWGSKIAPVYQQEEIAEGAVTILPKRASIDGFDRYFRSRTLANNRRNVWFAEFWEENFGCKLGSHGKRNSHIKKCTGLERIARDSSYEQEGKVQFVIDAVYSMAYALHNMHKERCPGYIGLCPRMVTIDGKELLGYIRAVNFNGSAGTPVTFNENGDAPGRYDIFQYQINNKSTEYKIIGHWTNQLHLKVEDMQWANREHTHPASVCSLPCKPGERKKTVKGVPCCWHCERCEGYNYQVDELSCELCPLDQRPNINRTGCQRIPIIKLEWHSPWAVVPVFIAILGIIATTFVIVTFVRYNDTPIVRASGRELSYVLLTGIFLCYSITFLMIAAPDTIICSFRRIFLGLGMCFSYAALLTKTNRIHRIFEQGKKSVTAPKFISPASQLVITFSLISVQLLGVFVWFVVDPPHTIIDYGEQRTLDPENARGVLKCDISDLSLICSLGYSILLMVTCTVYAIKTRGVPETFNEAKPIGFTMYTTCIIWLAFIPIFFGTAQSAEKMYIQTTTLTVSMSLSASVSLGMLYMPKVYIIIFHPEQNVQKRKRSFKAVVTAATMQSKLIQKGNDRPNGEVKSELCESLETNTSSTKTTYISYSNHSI
In the case of `COc1ccc(-c2nnc(N(C)C(=O)c3ccno3)s2)cc1`, the z-score was -0.105.

The molecule `CCN(CC)C(=O)CCSc1nnc(-c2ccncc2)o1` returned a z-score of 0.522.

Take `Cc1nnc(N/N=C/c2ccc(O)c([N+](=O)[O-])c2)[nH]c1=O`: the z-score is 0.0995.

The molecule `Cc1cccc(CCNC(=O)c2cc(=O)[nH]c3ccc(Br)cc23)c1` displayed a z-score of -0.576.

For `Cc1cc(C)cc(Nc2nc(-c3ccc(S(=O)(=O)N4CCCC4)cc3)cs2)c1`, the z-score was -0.0957.

On to `Cc1cccc(N(CC(=O)Nc2c(C)n(C)n(-c3ccccc3)c2=O)S(C)(=O)=O)c1C`, for which the z-score was -0.222.

Molecule `O=C(N/N=C/c1ccc([N+](=O)[O-])o1)c1cn(-c2ccccc2)nc1-c1ccccc1` had a z-score of -0.0113.

`Cc1sc2nc(SCC(=O)N(C)C)[nH]c(=O)c2c1C` gave a z-score of 1.08.

For the molecule `CCOC(=O)c1cc(NC(=O)Nc2ccccc2OC)c(C)nc1C`, the z-score is -0.0922.

`Cc1ccc(C2CN(C)C3(C(=O)Nc4ccccc43)C23COc2ccccc2C3=O)cc1` (centres undefined) gave a z-score of -0.0418.

With `CN(C(=O)COc1nnc(-c2cccs2)c(-c2cccs2)n1)c1ccccc1`, the z-score was -0.423.

For the molecule `O=C1CCC([N+](=O)[O-])C(c2ccc(Cl)cc2Cl)N1` (centres undefined), the z-score is -0.219.

`COc1ccc(-n2c(=O)c3ccccc3n(Cc3ccc(F)cc3)c2=O)cc1OC` showed a z-score of -0.315.

`COc1cccc(-n2c(SCC(=O)N3CCOCC3)nnc2-c2c[nH]c3ccccc23)c1`: the z-score is -0.89.

`O=C(O)c1ccc(Cl)c(S(=O)(=O)NCC2CCCO2)c1` (centres undefined) returned a z-score of -0.0841.

For `CC(=O)c1cccc(NC(=O)c2ccc(N(C)S(C)(=O)=O)cc2)c1`, the z-score amounted to 0.255.

`O=C(Nc1ccc(N2CCOCC2)cc1N1CCOCC1)c1cccs1` had a z-score of -0.508.

Consider `CC(=O)C1C(c2ccco2)c2c(noc2C)CC1(C)O` (centres undefined), for which the z-score was determined as 0.397.

As to `Cc1cc(/C=C2/SC(=S)N(c3cccc(Cl)c3)C2=O)c(C)n1-c1cccnc1`, the z-score is -0.217.

As for `CCCC(C)NC(=O)c1nc(-c2ccccc2)n(-c2ccccc2)n1` (centres undefined), the z-score is -2.97.

As to `CN1C(=O)C2(C(C#N)=C(N)N(c3cc(Cl)cc(Cl)c3)C3=C2C(=O)CCC3)c2ccccc21` (centres undefined), the z-score was active: -4.03.

`COc1cccc(C2CC(=O)NC3=C2C(=O)CCC3)c1` (centres undefined) displayed a z-score of -0.128.

As for `COc1cc(NC(=O)NC(C)(C(F)(F)F)C(F)(F)F)cc(OC)c1OC`, the z-score is 0.919.

`CC(=O)N/C(=C\c1ccc(F)cc1)C(=O)NC(Cc1c[nH]c2ccccc12)C(=O)O` (centres undefined): the z-score came to 0.0629.

Turning to `CSc1nc(-c2ccco2)cc(C(F)(F)F)c1C#N`, the z-score is 0.173.

Molecule `CCC(C(=O)O/N=C(\N)c1ccccc1)c1ccccc1` (centres undefined) had a z-score of 0.0275.

In the case of `Cn1c(=O)cc(SCC(=O)N2CCCC2)c2ccc(Cl)cc21`, the z-score was -0.0795.

The molecule `COC(=O)c1cccc(N(C(=O)c2cnccn2)C(C(=O)NCc2ccccc2)c2ccco2)c1` (centres undefined) gave a z-score of -0.473.

On to `O=C(CNC(=O)c1ccco1)NCC(=O)OCc1cccc(C(=O)Oc2ccccc2)c1`, for which the z-score was -1.04.

On to `CC1CC(NC(=O)C2(C)CC2(Cl)Cl)CC(C)(C)C1` (centres undefined), for which the z-score was -0.241.

Molecule `Cc1ccccc1NC(=O)C1C2CCCC1C2c1ccccc1` (centres undefined) yielded a z-score of 0.216.

As for `CC(C)Oc1ccc(C2CC(=O)N(c3ccccc3)C2=O)cc1` (centres undefined), the z-score was 2.33.

For `O=C(Nc1ccccc1)Nc1ccc(F)c([N+](=O)[O-])c1`, the z-score was found to be 0.304.

As for `O=C(CNS(=O)(=O)/C=C/c1ccccc1)OCC(=O)N1CCC(Cc2ccccc2)CC1`, the z-score is -0.27.

On to `O=C(NC1CCSC1=O)c1ccc(Oc2cccc(C(F)(F)F)c2)nc1` (centres undefined), for which the z-score came to 0.00898.

`O=C(OCc1nc2ccccc2s1)C1CCN(S(=O)(=O)c2cccs2)CC1` yielded a z-score of 0.023.

For the molecule `CN1CCN(C(=O)/C(=C\c2cccs2)NC(=O)c2ccco2)CC1`, the z-score is -0.139.

The molecule `O=C(NCC(c1ccco1)N1CCCC1)c1ccc(Cl)cc1` (centres undefined) had a z-score of -0.378.

`COc1ccccc1NC(=O)c1nnn(CC(=O)Nc2ccccc2)c1N` gave a z-score of 0.694.

Molecule `CC(C)c1ccc(S(=O)(=O)/N=C2/C=C(Sc3ncn[nH]3)C(=O)c3ccccc32)cc1` had a z-score of -0.192.

`COCCCNC(=O)C1CCN(C(=O)Nc2ccc(Cl)cc2)CC1` returned a z-score of -0.486.

In the case of `CCOC(=O)c1c(NCC2CCCO2)c2ccccc2[nH]c1=O` (centres undefined), the z-score was -0.0574.

Molecule `O=C(c1ccco1)N1CCN(C(=O)C2CCCO2)CC1` (centres undefined) gave a z-score of -0.365.

Take `CSCCC(NS(=O)(=O)c1ccc(Cl)cc1)C(=O)OCc1c(Cl)cccc1Cl` (centres undefined): the z-score is -0.0757.

`Nc1c(C(=O)c2ccc(Br)s2)oc2ccccc12` yielded a z-score of 1.19.

Consider `Cn1c(SCC(=O)N2CCc3ccccc3C2)nnc1-c1cccs1`, for which the z-score was found to be 0.491.

Molecule `S=C(Nc1cccc(Cl)c1)N1CCN(Cc2ccccc2)CC1` came in with a z-score of -0.391.

Molecule `CCOC(=O)c1cc(-c2ccc(C)cc2)n(CCC(=O)NCCN(C)C)c1C` had a z-score of 0.178.

`Cc1ccc(Cn2ncc3c(N4CCN(c5ccc(C)cc5)CC4)ncnc32)cc1` returned a z-score of -0.0986.

The molecule `CC(=O)COc1cc(C)cc2oc(=O)c(C)c(C)c12` came in with a z-score of -0.136.

`O=C(COc1ccccc1)NCCc1cn2ccsc2n1` showed a z-score of 0.183.

On to `COc1cc(NC(=S)NC(C)=O)ccc1NC(=O)C(C)C`, for which the z-score is -0.0237.

Consider `CC1(C)CC(=O)C2=C(C1)OC(N)=C(C#N)C2C1CC=CCC1` (centres undefined), for which the z-score was -0.081.

In the case of `O=C(CCSc1ccc(Cl)cc1)NC12CC3CC(CC(C3)C1)C2`, the z-score was -0.404.

In turn, `c1ccc(Cn2nnc3c(N4CCCC4)ncnc32)cc1` had a z-score of -0.0405.

In the case of `CCOC(=O)COc1ccc(S(=O)(=O)NCc2ccncc2)cc1`, the z-score was 1.19.

`Cc1cccnc1Nc1nc(-c2ccc(O)c(O)c2)cs1` had a z-score of -0.0449.

Regarding `CCOC(=O)N1CCN(C(=O)CN(c2cccc(OC)c2)S(C)(=O)=O)CC1`, the z-score is 0.147.

Regarding `Cc1ccc(CN2C(=O)CCC2C(=O)N2CCN(c3ccc(F)cc3)CC2)cc1` (centres undefined), the z-score amounted to 0.414.

Molecule `CSc1nc2ccccc2n1CC(=O)Nc1cc(C(F)(F)F)ccc1N1CCOCC1` came in with a z-score of -0.266.

`Cc1ccc(Oc2nnc(-c3ccc(C)cc3)c3ccccc23)cc1` returned a z-score of -0.103.

The molecule `Cc1cc(/C=N/n2cnnc2)c(C)n1-c1ccc(OCc2ccc(Cl)cc2)cc1` showed a z-score of 0.729.

In turn, `NC(=O)CNC(=O)[C@@H]1CC2(CC(c3ccc(Cl)cc3)=NO2)CN1C(=O)c1ccccc1` (some centres undefined) returned a z-score of -0.0997.

Molecule `Cc1ccccc1OCC(=O)N(Cc1nc(-c2ccccc2)no1)C(C)C` yielded a z-score of -0.0322.

In turn, `CC(=O)c1cn(CC(=O)NCc2ccc3c(c2)OCO3)c2ccccc12` showed a z-score of -0.0873.

`COC(=O)c1nc2n(n1)C(c1cc(OC)ccc1OC)C(C(=O)OC1CCCCC1)=C(C)N2` (centres undefined) yielded a z-score of 0.16.

For `COc1ccccc1C(=O)N1CCN(C(=O)COc2cccc(C)c2)CC1`, the z-score was -0.231.

Molecule `CCN(CC)CCn1c(NCc2nc3ccccc3n2Cc2ccccc2)nc2ccccc21` showed a z-score of 0.541.

`COc1cccc(OCCOc2cccc(/C=N/n3cnnc3)c2)c1` came in with a z-score of 0.022.

The molecule `CCOC(=O)c1ccc(NC(=O)c2ccccc2)cc1` displayed a z-score of -0.0754.

Molecule `COc1ccc2c(c1)CCC(C)N2S(=O)(=O)c1ccc(C2CNC(=O)C2)cc1` (centres undefined) gave a z-score of -0.121.

`COc1cc(/C=N/NC(N)=S)ccc1OCC(=O)Nc1ccc(C)cc1` returned a z-score of 0.0446.

With `CCOC(=O)c1c(NC(=O)c2noc3c2CCCC3)sc(C)c1C`, the z-score was -0.285.

Consider `COC(=O)Nc1ccc2c(c1)OCO2`, for which the z-score worked out at 1.44.

`CS(=O)(=O)N(Cc1ccccc1)c1ccc(C(=O)Nc2ccccc2Sc2ccccc2)cc1` had a z-score of 0.0136.

Regarding `COc1ccc(/C(N)=N/OC(=O)Cc2ccc(C)cc2)cc1OC`, the z-score was -0.247.

As for `OC(COc1ccccc1)Cn1c2ccccc2c2ccccc21` (centres undefined), the z-score is -0.0732.

In turn, `Cc1cc(SCn2nnc3ccccc3c2=O)nc2ccccc12` came in with a z-score of 0.222.

Regarding `C=CCN(c1ccc(C(=O)NCCc2ccccc2)cc1)S(C)(=O)=O`, the z-score was -0.00787.

On to `COc1ccc(N2C(=O)c3ccccc3NC2c2ccc(OC)c(CSc3ccccn3)c2)cc1` (centres undefined), for which the z-score is -0.0553.

`Cc1ccc(-n2nnnc2C(=Cc2ccc(N(C)C)cc2)c2nnnn2-c2ccc(C)cc2)cc1` yielded a z-score of -0.0997.

Regarding `O=S(=O)(Nc1ccncc1)c1ccccc1`, the z-score was 0.126.

Molecule `Cc1ccc(Cn2ccc(NC(=O)c3cc(-c4ccco4)on3)n2)cc1` yielded a z-score of 1.09.

`O=C(NCc1ccccn1)C1CCN(S(=O)(=O)c2ccccc2)CC1` gave a z-score of 0.79.

`Cc1cccc(-n2c(N)cc(=O)[nH]c2=S)c1C` came in with a z-score of 0.0226.

`Cc1ccc2nc(N/N=C/c3ccccc3C#N)nc(-c3ccccc3)c2c1` showed a z-score of -0.305.

`CCCCOc1nc(N)nc(-c2ccccc2)n1` returned a z-score of -0.634.

`Cc1ccc(-n2c(SCC(=O)Nc3cccc(S(=O)(=O)NC4=NCCCCC4)c3)nc3ccccc3c2=O)cc1C` showed a z-score of -0.262.

With `CN(Cc1ccccc1)C(=O)COC(=O)c1ccccc1Nc1ccccc1`, the z-score was -0.216.

Regarding `CCC(c1nnc(SCC(=O)Nc2nnc(-c3ccccc3)o2)o1)N(C)C` (centres undefined), the z-score was -0.0751.

`Cc1ccc(Oc2ccc(-c3nc(N)nc(N)n3)cc2)cc1C`: the z-score is -0.0713.

The molecule `COCCNC(=O)c1ccccc1-c1ccccc1C(=O)O` came in with a z-score of 0.465.

As to `CC(C)(C)c1ccc(S(=O)(=O)N2C=CC(C(F)(F)F)=NCC2)cc1`, the z-score is -0.158.

Consider `COCCCNC(=O)C1CCCN(S(=O)(=O)c2ccc(C)cc2)C1` (centres undefined), for which the z-score worked out at 0.386.

Turning to `COc1cccc(C2=NOC(C(=O)Nc3ccccc3SC)C2)c1` (centres undefined), the z-score is -0.115.

`CCN(CC)c1ccc(C(=O)O)cc1` registered a z-score of -0.133.

Molecule `Fc1ccccc1-c1nc(N2CCCCC2)c2ccccc2n1` showed a z-score of -0.286.

Turning to `Cc1[nH]n(-c2ccc(F)cc2)c(=O)c1/C=N/c1sc2c(c1C#N)CCCC2`, the z-score is active: 13.

In turn, `Cc1ccc(S(=O)(=O)NCC(=O)N2CCCCC2)cc1` gave a z-score of -0.17.

For `CC(=O)c1ccc(NC(=S)N(C)C2CCN(C)CC2)cc1`, the z-score was -0.243.

Molecule `CCNc1nc(NCC)nc(C(=O)Nc2ccccc2)n1` showed a z-score of -0.0479.

Molecule `CC(C)Cc1nnc(NC(=O)c2ccncc2)s1` came in with a z-score of -0.47.

For the molecule `O=C1CCCC(NCCCCCCNC2=C([N+](=O)[O-])C(=O)CCC2)=C1[N+](=O)[O-]`, the z-score is -0.199.

`O=C1CCCC2=C1C(c1ccc(Br)cc1)c1c([nH]c(=S)[nH]c1=O)N2` (centres undefined) came in with a z-score of 1.4.

`CCOC(=O)Nc1cc2c(C)cc(=O)oc2cc1C` showed a z-score of -0.027.

In turn, `Cc1sc2ncnc(N3CCOCC3)c2c1C` registered a z-score of -0.134.

Consider `O=S(=O)(NCCc1csc(-c2cccnc2)n1)c1ccc2c(c1)OCCO2`, for which the z-score is -0.0667.

`O=C(COC(=O)CCOc1ccccc1)NCc1ccco1` came in with a z-score of 0.129.

In the case of `Cc1cc(C)n(-c2nnc(C)n2NS(=O)(=O)c2ccc(F)cc2)n1`, the z-score was -0.327.

The record behind these values is PubChem BioAssay AID488969 (Vanderbilt High Throughput Screening Facility, 2010).
